Assay results published in PubChem BioAssay (NCI).
Values joined by “and” are separate entries in the source; they are usually repeats but may differ in a detail not shown here. Equal entries are not always repeated.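 48-hour exposure; five concentrations; linearly interpolated endpoints. GI50: concentration for 50% inhibition of growth. TGI is the concentration that stops growth completely.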

System: NCI-H322M lung
Test: growth of human tumour cells (NCI), 48 h

## O=C(/C=C/c1ccncc1)c1cc(Cl)ccc1O
  GI50: 18 µM
  TGI: 33.2 µM

## OCC#Cc1ccccc1C#Cc1ccccc1
  GI50: 16.1 µM
  TGI: 30 µM

## COc1cc(/C=C2\CN(S(=O)(=O)c3ccccc3)C/C(=C\c3cc(CN4CCCC4)c(O)c(OC)c3)C2=O)cc(CN2CCCC2)c1O
  GI50: 1.43 µM
  TGI: 2.84 µM

## O=C(O)c1ccccc1CC1Cc2ccccc2C1=O (stereo unspecified)
  TGI: > 100 µM

## O=C1c2cc3c(cc2-c2c1c1ccc(F)cc1c(=O)n2CCCNCCO)OCO3
  GI50: 0.0695 µM
  TGI: 0.639 µM

## CN(C)c1ccc(C(=N/N=C2\C(=O)Nc3ccccc32)c2ccc(N(C)C)cc2)cc1
  TGI: > 52.3 µM

## CN1CSC(=S)N(c2c3ccccc3nc3ccc(Br)cc23)C1
  TGI: 22.2 µM

## COc1cc(C2c3cc4c(cc3OC(C)(O)C2C)OCO4)cc(OC)c1OC (stereo unspecified)
  TGI: > 100 µM

## NS(=O)(=O)c1cc(Br)c(N=Nc2ccc(O)c3ncccc23)c(Br)c1
  TGI: > 100 µM

## COc1ncnc(NS(=O)(=O)c2ccc(N=C3C(=O)N(CN4CCN(c5c(F)cc6c(=O)c(C(=O)O)cn(C7CC7)c6c5OC)CC4C)c4ccc(Cl)cc43)cc2)c1OC (stereo unspecified)
  GI50: 26.1 µM
  TGI: > 50 µM

## CC(C)OP(=O)(OC(C)C)C(=NCCN=C(NNc1ccc([N+](=O)[O-])cc1)P(=O)(OC(C)C)OC(C)C)NNc1ccc([N+](=O)[O-])cc1
  TGI: > 100 µM

## CCN(CC)CCn1c(=O)c2cccnc2n2c3c(=O)n(C)c(=O)n(C)c3nc12
  TGI: > 100 µM

## OCc1ccc(-c2ccc(-c3ccc(CO)s3)o2)s1
  TGI: 38.8 µM

## O=c1c2sc(=S)n(-c3ccc(F)cc3)c2ncn1/N=C/c1ccc(F)cc1F
  TGI: 60 µM

## Cc1ccc(C(=C2Sc3ccccc3S2)C(=C2Sc3ccccc3S2)c2ccc(C)s2)s1
  TGI: > 100 µM

## COc1cc(OC)cc(-c2cc(=O)c3c(OC)c(OC)c(OC)c(OC)c3o2)c1
  TGI: > 100 µM

## NC1(C(=O)OCc2ccccc2)CCCC1
  TGI: > 100 µM

## CCC1(CC)C(=O)NN(C(=O)c2ccccc2)C1=O
  TGI: > 100 µM

## CN(C(=O)c1ccc(C(F)(F)F)cc1)c1ccc(Oc2ccc3c(c2)cc(C(=O)N2CCN(Cc4ccc(OC(F)F)cc4)CC2)n3C)nc1
  GI50: > 100 µM
  TGI: > 100 µM

## CCCCCCN(CCCCCC)C(=O)Cc1c2n(c3ccccc13)Cc1ccccc1-2
  TGI: > 100 µM

## Cc1ccc(S(=O)(=O)N/N=C/C2(c3ccccc3)c3ccccc3-c3ccccc32)cc1
  TGI: 77.5 µM

## COc1ccc(-c2nnc(COc3ccc(NC(=O)Nc4cc(C(F)(F)F)cc(C(F)(F)F)c4)cc3F)o2)cc1
  GI50: 2.39 µM
  TGI: 9.98 µM

## Oc1ccc([I+]c2ccccc2)cc1O
  TGI: > 100 µM

## N=C(N)SCc1ccc2c(c1)Sc1ccccc1O2
  TGI: 14.1 µM

## CC(C)(C)OC(=O)N[C@H]1CC2(C=C(Cl)C(=O)C(Cl)=C2)OC1=O
  TGI: > 66.4 µM

## Nc1ncnc2n[nH]c(Nc3ccc(F)cc3)c12
  GI50: 52.6 µM
  TGI: > 100 µM

## N#CC12C(=O)N=C(N)C1(C#N)C(c1ccco1)NC1=C2CCCC1 (stereo unspecified)
  TGI: > 100 µM

## CSc1nc(NC2OCC(OC(C)=O)C(OC(C)=O)C2OC(C)=O)c(N=CC=Nc2c(NC3OCC(OC(C)=O)C(OC(C)=O)C3OC(C)=O)nc(SC)[nH]c2=O)c(=O)[nH]1 (stereo unspecified)
  TGI: > 100 µM

## CC(=O)Nc1nc(C#N)[nH]c1C#N
  TGI: > 100 µM

## O=C(CC(C(=O)c1ccsc1)c1ccc2c(c1)OCO2)c1ccccc1 (stereo unspecified)
  TGI: > 100 µM

## [O-][n+]1ccccc1Sc1nc(Sc2cccc[n+]2[O-])nc(Sc2cccc[n+]2[O-])n1
  TGI: 27.1 µM

## CC1=NS(=O)(=O)c2ccccc2N1
  TGI: > 100 µM

## CCOC(=O)C1=C(C)C2C=C(c3cccs3)CC(c3ccc(Cl)cc3)=C2OC1=O (stereo unspecified)
  TGI: > 100 µM

## C=CCSc1nnc2cc(CN3CCCC3)c(-c3ccc(Cl)cc3)nn12
  TGI: 32.8 µM

## COc1cccc(-c2nc(-c3ccc(NC(=O)C(C)C)cc3)[nH]c2-c2ccnc(Br)c2)c1
  GI50: 2.72 µM
  TGI: > 100 µM

## Cn1cnc([N+](=O)[O-])c1S(=O)(=O)Oc1cccc2ccccc12
  GI50: 19.2 µM
  TGI: 71.6 µM

## CN(C)CCSC1=Nc2ccc(Cl)cc2C(c2ccccc2Cl)=NC1
  GI50: 17.4 µM and > 100 µM
  TGI: 37.4 µM and > 100 µM

## CC1(C)C2CCC1(C)[C@H](n1c(=O)n([C@@H]3CC4CCC3(C)C4(C)C)c(=O)n([C@@H]3CC4CCC3(C)C4(C)C)c1=O)C2
  TGI: > 100 µM

## Nc1ncnc2c1nnn2C1OC(CO)C(O)C1O (stereo unspecified)
  TGI: 22 µM

## COc1cc(/C=C/C(=O)CC(=O)/C=C/c2ccc(OC(=O)CCCCC3CCSS3)c(OC)c2)ccc1OC(=O)CCCCC1CCSS1 (stereo unspecified)
  TGI: > 100 µM

## O=C1c2ccccc2-c2c1c(-c1ccc(F)cc1)nc1ccc3ccccc3c21
  TGI: > 100 µM

## Cc1cc(N(CCOS(C)(=O)=O)CCOS(C)(=O)=O)ccc1C=O
  TGI: 9.1 µM

## COc1ccc2c(c1)/C(=C\c1c(Cl)nc3sc(C)cn13)C(=O)N2
  TGI: 19.6 µM

## COc1cc(C2c3cc4c(cc3OC(NN)C2C)OCO4)cc(OC)c1OC (stereo unspecified)
  TGI: > 100 µM

## NS(=O)(=O)c1cc2c(cc1Cl)NC(CCC(=O)O)=NS2(=O)=O
  TGI: > 100 µM

## CCCCCCCC(=O)SCC/C=C/[C@@H]1CC(=O)NCc2cc(ccn2)C2=N[C@@](C)(CS2)C(=O)N[C@@H](C(C)C)C(=O)O1
  GI50: 0.0478 µM

## CN(C)c1ccc(/C=C(\NC(=O)c2ccccc2)c2nc3ncncc3[nH]2)cc1
  TGI: > 100 µM

## O=c1cc(-c2ccccc2)oc2cc(OCCCOc3ccc4c(=O)cc(-c5ccccc5)oc4c3)ccc12
  TGI: > 100 µM

## Cc1cn(C2CC(O)C(CO)O2)c(=O)[nH]c1=O (stereo unspecified)
  TGI: > 3870 µM

## O=S1(=O)OCCOS(=O)(=O)C1Br
  TGI: > 100 µM

## CS(=O)(=O)OCC(CCl)(CCl)CCl
  TGI: > 100 µM

## [Cl-].[La+3].[O-]/N=C(\c1ccccc1)c1ccccn1.[O-]/N=C(\c1ccccc1)c1ccccn1.[O-]/N=C(\c1ccccc1)c1ccccn1
  GI50: 44 µM
  TGI: > 100 µM

## CCOC(=O)c1c(C)nc2c3ccccc3c(C#N)c(C)n12
  TGI: > 100 µM

## OC(c1cc(-c2ccc(C(F)(F)F)cc2)nc(-c2ccc(C(F)(F)F)cc2)c1)C1CCCCN1 (stereo unspecified)
  GI50: 1.59 µM
  TGI: 3.14 µM

## Cc1cc(O)c(/C=N/C(=S)NCc2ccccc2)c(=O)o1
  TGI: > 100 µM

## C=C1C(=O)O[C@H]2[C@H]1CC/C(COC(=O)c1c[nH]c3ccccc13)=C\CC[C@@]1(C)O[C@@H]21
  GI50: 1.85 µM
  TGI: 4.06 µM

## Cc1cc(/C=C/c2ccc3cc(N(C)C)ccc3[n+]2C)c(C)n1-c1ccccc1
  GI50: 0.926 µM
  TGI: 7.38 µM

## CCOC(=O)c1cc2nc3ccccc3c(=O)n2c2ccccc12
  TGI: > 10 µM

## Cn1c2ccccc2c2cc(-c3ccccc3)c3c(c21)C(=O)c1ccccc1C3=O
  TGI: 52.4 µM

## O=C(/C=C/c1ccc2c(c1)OCO2)CC(=O)C(=O)c1c[nH]c2ccccc12
  TGI: > 100 µM

## COC(=O)C1CCC(=O)N1C(c1ccc(OC)cc1)c1ccc2c(c1)OCO2 (stereo unspecified)
  TGI: > 100 µM

## CSC(=S)N/N=C(\C)c1ccc(S(=O)(=O)N(C)c2ccccc2)cc1
  TGI: > 100 µM

## ClCc1cccc(Cn2cnc3ncnc(Cl)c32)c1
  GI50: 2.02 µM
  TGI: 3.46 µM

## CN(C)c1nc(=Nc2ccc(N=c3nc(N(C)C)ss3)cc2)ss1
  TGI: > 100 µM

## COc1ccc(/C=C(/C#N)n2nnc3cccc(F)c32)cc1
  GI50: 2.59 µM
  TGI: > 100 µM

## O=c1[nH]c(=O)n(C2OC(CO)C(O)C2O)c2nc(-c3ccc(-c4ccccc4)cc3)cnc12 (stereo unspecified)
  TGI: > 100 µM

## Brc1ccccc1C1SCc2nc3ccccc3n21 (stereo unspecified)
  TGI: > 100 µM

## O=C(Nc1ccc(Cl)cc1)c1cccc(NC2=C(Cl)C(=O)N(Cc3ccccc3)C2=O)c1
  GI50: 25.7 µM
  TGI: > 100 µM

## Cc1ccc(NC(=O)c2cc3cc(N=Nc4ccccc4C(=O)O)ccc3oc2=O)cc1
  TGI: > 100 µM

## O=S(=O)(CCn1c(Sc2ccccc2)c(Sc2ccccc2)c2ccccc21)c1ccccc1
  TGI: > 100 µM

## O=C1OC(O)[C@@H]2[C@H]1[C@H]1CC[C@@H]2O1 (stereo partly specified)
  GI50: > 78.6 µM
  TGI: > 100 µM

## O=c1[nH]c(Nc2nc3ccccc3[nH]2)nc(O)c1-c1ccccc1
  TGI: > 100 µM

## O=C(O)CCC(=O)OC1N=C(c2ccccc2Cl)c2cc([N+](=O)[O-])ccc2NC1=O (stereo unspecified)
  TGI: > 100 µM

## COc1cccc(CCCNC(=O)Cc2cc(OC)c(OC)cc2CO)c1
  TGI: > 100 µM

## CCCSCC(P(=O)(O)O)P(=O)(O)O
  TGI: > 100 µM

## CCOC(=O)C(=C=C=C(c1ccccc1)c1ccccc1)C(=O)OCC
  TGI: 90.7 µM

## C#CC1(O)CCC2C3CCc4cc(Oc5nc(F)nc(-c6c7ccccc7c7sc8ccccc8n67)n5)ccc4C3CC[C@@]21C (stereo partly specified)
  TGI: > 100 µM

## CC1=C[C@@H]2Cc3nc4cc(Cl)ccc4c(N)c3[C@H](C1)C2
  TGI: 22.6 µM

## Cc1cccc2c1CC1(C2)Cc2c(C)cccc2C1=O (stereo unspecified)
  TGI: 61.6 µM

## CCc1cc(Cc2cc(CC)c(NC(=O)C(=O)Cc3ccccn3)c(CC)c2Cl)c(Cl)c(CC)c1NC(=O)C(=O)Cc1ccccn1
  TGI: > 100 µM

## C/C(=N\NC(=S)NC(CCC(=O)O)C(=O)O)c1ccccn1 (stereo unspecified)
  TGI: > 100 µM

## Cc1c2c(nn1-c1ccc(S(=O)(=O)/N=C3\SCCC(=O)N3c3ccccc3)cc1)-c1ccccc1CC2
  GI50: 23.5 µM
  TGI: > 100 µM

## CCOC(=O)c1cn2c(nc1=O)N[C@H]1CCCC[C@@H]12
  TGI: > 100 µM

## COc1ccc(-c2nnc(COc3ccc(C(=O)/C=C/c4ccco4)cc3)o2)cc1
  GI50: 5.64 µM
  TGI: 17.9 µM

## CS(=O)c1ncc2c(n1)-c1ccccc1OC2 (stereo unspecified)
  TGI: > 100 µM

## O=C(/C=C\c1ccc(Cl)c(Cl)c1)c1ccc(Cl)cc1Cl
  TGI: > 100 µM

## CCOC(=O)c1nc2c(nc1C(=O)OCC)C(=O)c1ccccc1C2=O
  TGI: 3.6 µM

## CC(C)[C@H]1COC(=O)N1[C@@H]1C(=O)N([C@@H](CCC(=O)N2CCN(C3CCCC3)CC2)C(=O)N[C@@H]2CCCc3ccccc32)[C@@H]1/C=C/c1cccc(Br)c1
  GI50: 2.98 µM
  TGI: 13.4 µM

## CCCCC(C(=O)NCCNC(=O)CCC(=O)N(C)O)C(=O)NCCNC(=O)CCC(=O)N(C)O
  TGI: > 100 µM

## O=[N+]([O-])C(/C=C(\Cl)n1nnc2ccccc21)=C(/Cl)n1nnc2ccccc21
  TGI: > 100 µM

## COC(OC)C(C)CC(=O)N(C)C (stereo unspecified)
  TGI: > 100 µM

## N#Cc1c(-c2ccccc2)/c(=C\Nc2ccc(F)cc2)c(=O)n2c1nc1ccccc12
  TGI: 88.5 µM

## CC(C)C(C)/C=C\C(C)C1CCC2C3=CC=C4CC(O)CCC4(C)C3CCC21C (stereo unspecified)
  TGI: > 100 µM

## Clc1ccc(C(c2ccc(Cl)cc2)c2ccccn2)cc1
  TGI: 48.5 µM

## CCN1CCN(c2nc(C)cc(N(CCNc3ccnc4cc(Cl)ccc34)Cc3ccc4c(c3)OCO4)n2)CC1
  GI50: 2.52 µM
  TGI: 8.07 µM

## Fc1cc2[nH]ncc2c2c3c(c(-c4cn[nH]c4)nc12)CCCC3
  GI50: 1.01 µM
  TGI: 7.16 µM

## O=C(O)/C=C(/C(=O)O)C12CCN3CC4=CCOC5CC(=O)NC1C5C4CC32 (stereo unspecified)
  TGI: > 100 µM
